Experimental data published in paper PMC5325411.
Results are given in words; binding and its absence hold for the method and conditions named. Binding seen in cells or lysates may run through a third protein. Some results given as binding are weak or reduced against the parent protein; the word gives no strength. Blank lines part the entries; values can stand above or below the substance they belong to.

Sequences of proteins named here, by UniProt entry; tags and fusion partners are left off.
UniProt P30153: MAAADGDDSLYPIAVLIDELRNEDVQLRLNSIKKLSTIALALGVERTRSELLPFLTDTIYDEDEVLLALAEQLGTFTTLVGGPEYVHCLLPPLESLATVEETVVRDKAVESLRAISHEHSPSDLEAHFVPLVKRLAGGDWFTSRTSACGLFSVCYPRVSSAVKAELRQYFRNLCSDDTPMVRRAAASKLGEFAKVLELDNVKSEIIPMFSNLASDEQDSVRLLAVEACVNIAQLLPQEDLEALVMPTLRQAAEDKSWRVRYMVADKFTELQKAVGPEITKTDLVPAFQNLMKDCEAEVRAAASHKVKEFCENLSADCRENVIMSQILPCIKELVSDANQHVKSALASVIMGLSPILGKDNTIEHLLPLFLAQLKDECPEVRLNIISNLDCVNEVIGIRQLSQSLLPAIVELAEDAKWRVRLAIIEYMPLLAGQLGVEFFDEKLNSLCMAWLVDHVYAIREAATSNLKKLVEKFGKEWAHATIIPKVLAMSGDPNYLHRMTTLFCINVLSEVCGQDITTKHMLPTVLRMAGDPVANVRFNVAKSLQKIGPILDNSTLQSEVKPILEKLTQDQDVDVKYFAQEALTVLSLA
UniProt Q96E09: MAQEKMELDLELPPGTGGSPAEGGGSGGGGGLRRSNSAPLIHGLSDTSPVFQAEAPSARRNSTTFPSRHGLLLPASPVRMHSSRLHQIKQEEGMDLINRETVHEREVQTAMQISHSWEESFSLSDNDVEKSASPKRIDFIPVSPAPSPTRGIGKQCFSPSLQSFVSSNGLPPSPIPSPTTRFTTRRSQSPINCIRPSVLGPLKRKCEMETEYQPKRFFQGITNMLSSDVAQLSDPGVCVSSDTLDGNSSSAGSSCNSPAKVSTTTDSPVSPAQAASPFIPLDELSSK
UniProt Q15172: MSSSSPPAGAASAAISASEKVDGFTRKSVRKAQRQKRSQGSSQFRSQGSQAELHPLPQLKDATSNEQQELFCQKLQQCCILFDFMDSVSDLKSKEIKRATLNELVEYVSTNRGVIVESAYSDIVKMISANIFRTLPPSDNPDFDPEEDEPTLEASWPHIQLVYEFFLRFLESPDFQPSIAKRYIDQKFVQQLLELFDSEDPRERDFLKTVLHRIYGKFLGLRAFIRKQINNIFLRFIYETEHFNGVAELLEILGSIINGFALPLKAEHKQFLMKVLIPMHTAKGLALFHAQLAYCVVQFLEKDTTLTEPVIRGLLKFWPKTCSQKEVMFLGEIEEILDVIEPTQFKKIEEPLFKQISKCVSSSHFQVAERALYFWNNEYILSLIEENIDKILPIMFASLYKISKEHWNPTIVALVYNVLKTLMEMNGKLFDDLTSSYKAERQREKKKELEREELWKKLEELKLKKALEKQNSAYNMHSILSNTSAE

Experiments:
Flag-tagged PP2A-Aα = Flag-tagged PP2A-Aα (UniProt P30153); experiment: co-IP; 293T stably expressing FAM122A or empty vector, transiently transfected with Flag-PP2A-Aα; IP with Flag antibody, western blot
[1] = molecular target: endogenous FAM122A (human (endogenous in 293T and Jurkat)) (UniProt Q96E09); experiment: co-IP; untransfected 293T and Jurkat lysates; IP with anti-FAM122A antibody or non-specific IgG and protein A/G-agarose; endogenous PP2A subunits by western blot
GFP-tagged FAM122A [2] = molecular target: GFP-tagged FAM122A (UniProt Q96E09); experiment: co-IP; 293T transiently transfected with GFP-FAM122A or GFP; IP with anti-GFP antibody or non-specific IgG; endogenous PP2A subunits by western blot
GST-tagged FAM122A = GST-tagged FAM122A (UniProt Q96E09); experiment: pull-down; purified GST or GST-FAM122A incubated with His-tagged PP2A subunits expressed in E. coli BL21; GST pull-down, blot with anti-His and anti-GST; only the target purified
Flag-tagged PP2A-B56α = Flag-tagged PP2A-B56α (UniProt Q15172); experiment: co-IP; reciprocal: 293T transiently co-transfected with a Flag-tagged PP2A subunit or empty vector and GFP-FAM122A; IP with anti-Flag M2 affinity gel; 50 mM Tris-HCl pH 7.6, 150 mM NaCl, 1 mM EDTA, 1% NP-40; 4°C overnight
GFP-tagged FAM122A [3] = molecular target: GFP-tagged FAM122A (UniProt Q96E09); experiment: co-IP; 293T transiently co-transfected with GFP-FAM122A or empty vector and a Flag-tagged PP2A subunit; IP with anti-GFP, 48 h after transfection; 50 mM Tris-HCl pH 7.6, 150 mM NaCl, 1 mM EDTA, 1% NP-40; 4°C overnight

binding (Flag-tagged PP2A-Aα): binds | binding [1]: no binding | binding (GFP-tagged FAM122A [2]): no binding
Substance: endogenous PP2A-B56α (from UniProt Q15172 1-486)

binding (GST-tagged FAM122A): no binding
Substance: His-tagged PP2A-B56α (from UniProt Q15172 1-486)

binding (Flag-tagged PP2A-B56α): no binding
Substance: GFP-tagged FAM122A (from UniProt Q96E09 1-287)

binding (GFP-tagged FAM122A [3]): no binding
Substance: Flag-tagged PP2A-B56α (from UniProt Q15172 1-486)
